The antibiotic and cytotoxicity screens of Wong et al. (2023)
The list shows a part of the results.

Test system: HepG2
Test: cytotoxicity call (relative viability < 0.9)
Conditions: 10 µM

| SMILES | cytotoxicity call |
| --- | --- |
| O=c1[nH]c(=S)nc2[nH][nH]cc1-2 | inactive |
| C[C@@H]1CN([C@H](C)CO)C(=O)c2cc(C3=CCCC3)cnc2O[C@H]1CN(C)C(=O)Nc1ccc(C(F)(F)F)cc1 | inactive |
| Cc1noc(C)c1S(=O)(=O)Nc1ccc2c(c1)C(=O)N([C@H](C)CO)C[C@H](C)[C@H](CN(C)Cc1ccc(Cl)c(Cl)c1)OCCCC[C@@H](C)O2 | inactive |
| COCC(=O)N(C)C[C@@H]1Oc2cc(C#CCN(C)C)ccc2S(=O)(=O)N([C@@H](C)CO)C[C@H]1C | inactive |
| C[N+](C)(C)CC(O)CC(=O)[O-] (stereo not drawn) | active |
| C[C@@H]1CCCCO[C@H](CN(C)Cc2ccc(Cl)c(Cl)c2)[C@H](C)CN([C@H](C)CO)C(=O)c2cc(NC(=O)CCC(F)(F)F)ccc2O1 | active |
| C[C@@H]1CN([C@@H](C)CO)C(=O)c2cccc(NC(=O)NC3CCCCC3)c2O[C@@H]1CN(C)C(=O)Nc1ccc(C(F)(F)F)cc1 | inactive |
| CN(C)CCCN1C(=O)[C@@]2(Cc3ccccc31)c1ccccc1C(=O)N(C1CCCCC1)[C@H]2c1ccc(CO)cc1 | inactive |
| O=C(O)c1ccc2cc(-c3ccc(O)c(C45CC6CC(CC(C6)C4)C5)c3)ccc2c1 | inactive |
| COC(=O)c1c(CC[C@@H](CO)NC(=O)N[C@H](Cc2ccccc2)Cn2cc(-c3ccccn3)nn2)oc(C(C)=O)c1C(=O)OC | inactive |
| N[C@H]1CC[C@H](CCn2cc(-c3ccccn3)nn2)O[C@@H]1CO | inactive |
| C[C@H]1CN([C@@H](C)CO)S(=O)(=O)c2ccc(C#CC(C)(C)O)cc2O[C@@H]1CN(C)C(=O)CN(C)C | inactive |
| COc1ccccc1S(=O)(=O)N(C)C[C@@H]1Oc2cc(C#CCC(C)C)ccc2S(=O)(=O)N([C@H](C)CO)C[C@H]1C | inactive |
| CO/N=C1\CN(c2nc3c(cc2F)c(=O)c(C(=O)O)cn3C2CC2)C[C@@H]1CN | inactive |
| C[C@@H]1CC[C@@]2(OC1)O[C@H]1C[C@H]3[C@H]4C[C@@H](O)[C@H]5C[C@@H](O[C@@H]6O[C@H](CO)[C@H](O[C@@H]7O[C@H](CO)[C@@H](O)[C@H](O[C@@H]8OC[C@@H](O)[C@H](O)[C@H]8O)[C@H]7O[C@@H]7O[C@H](CO)[C@@H](O)[C@H](O)[C@H]7O)[C@H](O)[C@H]6O)CC[C@]5(C)[C@@H]4CC[C@]3(C)[C@H]1[C@@H]2C | active |
| C[C@@H]1CN([C@H](C)CO)C(=O)CCCn2nncc2CO[C@@H]1CN(C)C(=O)Nc1cccc(C(F)(F)F)c1 | inactive |
| CO[C@H]1CN(C)C(=O)c2ccc(NS(C)(=O)=O)cc2OC[C@H](C)N(C(=O)CN(C)C)C[C@H]1C | inactive |
| COc1ccc(S(=O)(=O)N(C)C[C@@H]2Oc3ncc(C#CC4(O)CCCC4)cc3C(=O)N([C@H](C)CO)C[C@@H]2C)cc1 | inactive |

Test system: S. aureus RN4220
Test: growth inhibition call (relative growth <= 0.2)
Conditions: 50 µM

| SMILES | growth inhibition call |
| --- | --- |
| C[C@@H]1CN([C@@H](C)CO)C(=O)Cc2cc(NC(=O)C3CC3)ccc2O[C@@H]1CN(C)Cc1ccc(C(=O)O)cc1 | inactive |
| C[C@H]1CCCCO[C@@H](CN(C)C(=O)Cc2ccccc2)[C@@H](C)CN([C@@H](C)CO)C(=O)c2cc(NC(=O)CCC(F)(F)F)ccc2O1 | inactive |
| C[C@@H]1CN([C@@H](C)CO)C(=O)c2cccc(NC(=O)C3CC3)c2O[C@@H]1CN(C)C(=O)Nc1ccc2c(c1)OCO2 | inactive |
| Cn1nnc2c1[C@H](COCC1CC1)CN(C(=O)CS(C)(=O)=O)C2 | inactive |
| COc1ccc(C#Cc2cnc3c(c2)C(=O)N([C@@H](C)CO)C[C@H](C)[C@H](CN(C)CC2CCOCC2)O3)cc1 | inactive |
| CS(=O)(=O)N1[C@@H]2Cn3c(cccc3=O)[C@H]1[C@@H](C(=O)NCc1ccccc1)[C@@H]2CO | inactive |
| C[C@H](CO)N1C[C@H](C)[C@H](CN(C)S(=O)(=O)c2ccc(F)cc2)OCCCC[C@H](C)Oc2ccc(NC(=O)NC3CCCCC3)cc2C1=O | inactive |
| O=C(NC1CC1)c1n[nH]c(=O)c2ccccc12 | inactive |
| c1ccc(CN(CC2=NCCN2)c2ccccc2)cc1 | inactive |
| CCc1cc(C(N)=S)ccn1 | inactive |
| COc1ccc(S(=O)(=O)N(C)C[C@@H]2OCCCC[C@@H](C)Oc3ccc(NC(=O)NC4CCCCC4)cc3C(=O)N([C@@H](C)CO)C[C@@H]2C)cc1 | inactive |
| COC(=O)C1(C)CCCC2(C)c3ccc(C(C)C)cc3C(=O)CC12 (stereo not drawn) | inactive |
| Cc1ccc(S(=O)(=O)N(C)C[C@H]2Oc3ccc(NC(=O)Cn4cnnn4)cc3C(=O)N([C@H](C)CO)C[C@@H]2C)cc1 | inactive |
| CCCNC(=O)N[C@@H]1C=C[C@@H](CC(=O)N2CCN(C)CC2)O[C@@H]1CO | inactive |
| COc1ccc(NC(=O)N(C)C[C@H]2OCCCC[C@@H](C)Oc3ccc(NC(=O)C4CCCCC4)cc3C(=O)N([C@@H](C)CO)C[C@@H]2C)cc1 | inactive |
| COc1ccc2c3c(n(c2c1)C)[C@H](CO)N(C[C@]13CN(C1)C(=O)C1CC1)C(=O)CN1CCOCC1 | inactive |
| Cc1noc(C)c1NC(=O)Nc1cccc2c1O[C@@H](CN(C)C(=O)Nc1ccc(C(F)(F)F)cc1)[C@H](C)CN([C@H](C)CO)C2=O | inactive |
| O=c1/c(=C/c2cccc(Cl)c2)c2cccc3cccc1c32 | inactive |
| C[C@H]1CN([C@@H](C)CO)C(=O)Cc2cc(NC(=O)CCN3CCOCC3)ccc2O[C@@H]1CN(C)S(=O)(=O)c1cccs1 | inactive |
| C[C@@H]1CN([C@H](C)CO)C(=O)c2cc(NC(=O)Cn3cnnn3)ccc2O[C@H]1CN(C)Cc1ccc(C(=O)O)cc1 | inactive |

| SMILES | growth inhibition call |
| --- | --- |
| COc1ccc(S(=O)(=O)Nc2ccc3c(c2)C(=O)N([C@H](C)CO)C[C@@H](C)[C@@H](CN(C)Cc2ccc(C(=O)O)cc2)OCCCC[C@@H](C)O3)cc1 | inactive |
| C[C@@H]1CN([C@H](C)CO)C(=O)c2cccc(NS(C)(=O)=O)c2O[C@H]1CN(C)S(=O)(=O)c1ccccc1 | inactive |
| O=c1[nH]c(=S)nc2[nH][nH]cc1-2 | inactive |
| C[C@@H]1CN([C@H](C)CO)C(=O)c2cc(C3=CCCC3)cnc2O[C@H]1CN(C)C(=O)Nc1ccc(C(F)(F)F)cc1 | inactive |
| Cc1noc(C)c1S(=O)(=O)Nc1ccc2c(c1)C(=O)N([C@H](C)CO)C[C@H](C)[C@H](CN(C)Cc1ccc(Cl)c(Cl)c1)OCCCC[C@@H](C)O2 | inactive |
| COCC(=O)N(C)C[C@@H]1Oc2cc(C#CCN(C)C)ccc2S(=O)(=O)N([C@@H](C)CO)C[C@H]1C | inactive |
| C[N+](C)(C)CC(O)CC(=O)[O-] (stereo not drawn) | inactive |
| C[C@@H]1CCCCO[C@H](CN(C)Cc2ccc(Cl)c(Cl)c2)[C@H](C)CN([C@H](C)CO)C(=O)c2cc(NC(=O)CCC(F)(F)F)ccc2O1 | inactive |
| C[C@@H]1CN([C@@H](C)CO)C(=O)c2cccc(NC(=O)NC3CCCCC3)c2O[C@@H]1CN(C)C(=O)Nc1ccc(C(F)(F)F)cc1 | inactive |
| CN(C)CCCN1C(=O)[C@@]2(Cc3ccccc31)c1ccccc1C(=O)N(C1CCCCC1)[C@H]2c1ccc(CO)cc1 | inactive |
| O=C(O)c1ccc2cc(-c3ccc(O)c(C45CC6CC(CC(C6)C4)C5)c3)ccc2c1 | active |
| COC(=O)c1c(CC[C@@H](CO)NC(=O)N[C@H](Cc2ccccc2)Cn2cc(-c3ccccn3)nn2)oc(C(C)=O)c1C(=O)OC | inactive |
| N[C@H]1CC[C@H](CCn2cc(-c3ccccn3)nn2)O[C@@H]1CO | inactive |
| C[C@H]1CN([C@@H](C)CO)S(=O)(=O)c2ccc(C#CC(C)(C)O)cc2O[C@@H]1CN(C)C(=O)CN(C)C | inactive |
| COc1ccccc1S(=O)(=O)N(C)C[C@@H]1Oc2cc(C#CCC(C)C)ccc2S(=O)(=O)N([C@H](C)CO)C[C@H]1C | inactive |
| CO/N=C1\CN(c2nc3c(cc2F)c(=O)c(C(=O)O)cn3C2CC2)C[C@@H]1CN | active |
| C[C@@H]1CC[C@@]2(OC1)O[C@H]1C[C@H]3[C@H]4C[C@@H](O)[C@H]5C[C@@H](O[C@@H]6O[C@H](CO)[C@H](O[C@@H]7O[C@H](CO)[C@@H](O)[C@H](O[C@@H]8OC[C@@H](O)[C@H](O)[C@H]8O)[C@H]7O[C@@H]7O[C@H](CO)[C@@H](O)[C@H](O)[C@H]7O)[C@H](O)[C@H]6O)CC[C@]5(C)[C@@H]4CC[C@]3(C)[C@H]1[C@@H]2C | inactive |
| C[C@@H]1CN([C@H](C)CO)C(=O)CCCn2nncc2CO[C@@H]1CN(C)C(=O)Nc1cccc(C(F)(F)F)c1 | active |
| CO[C@H]1CN(C)C(=O)c2ccc(NS(C)(=O)=O)cc2OC[C@H](C)N(C(=O)CN(C)C)C[C@H]1C | inactive |
| COc1ccc(S(=O)(=O)N(C)C[C@@H]2Oc3ncc(C#CC4(O)CCCC4)cc3C(=O)N([C@H](C)CO)C[C@@H]2C)cc1 | inactive |
